Experimental data taken from the supplement of paper PMC3334620.
Whole data set: some 33,000 sequences, median “E-score (-0.5 to 0.5)” near -0.032, cut for the highest 2% near 0.36. The list shows a part of the results.

These sequences were tested against T1, Sko1 (UniProt Q02100) (assay: PBM E-score (8-mer binding enrichment) (E-score (-0.5 to 0.5)); higher = stronger / more preferred TF binding; most listed sequences are background and not binding sites). Details: protein concentration: 200 nM; construct: GST-full length.
T1 sequence: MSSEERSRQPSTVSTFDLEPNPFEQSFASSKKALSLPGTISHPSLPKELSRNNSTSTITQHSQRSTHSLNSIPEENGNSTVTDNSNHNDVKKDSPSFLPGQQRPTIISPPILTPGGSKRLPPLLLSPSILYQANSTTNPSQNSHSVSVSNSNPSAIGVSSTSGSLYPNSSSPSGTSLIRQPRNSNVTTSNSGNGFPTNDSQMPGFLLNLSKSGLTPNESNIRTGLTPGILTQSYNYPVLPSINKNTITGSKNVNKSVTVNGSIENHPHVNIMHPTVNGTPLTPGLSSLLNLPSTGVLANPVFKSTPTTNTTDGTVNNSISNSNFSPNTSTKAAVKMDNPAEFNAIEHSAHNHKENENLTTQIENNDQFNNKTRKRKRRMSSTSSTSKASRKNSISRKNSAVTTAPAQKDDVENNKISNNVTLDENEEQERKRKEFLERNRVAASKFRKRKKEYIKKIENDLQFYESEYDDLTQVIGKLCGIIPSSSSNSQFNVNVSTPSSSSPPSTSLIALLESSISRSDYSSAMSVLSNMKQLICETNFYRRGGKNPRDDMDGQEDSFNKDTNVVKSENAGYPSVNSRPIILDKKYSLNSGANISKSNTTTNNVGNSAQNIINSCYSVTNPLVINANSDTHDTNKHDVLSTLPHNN
Method in brief: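 GST-tagged yeast TFs (full-length or DNA-binding domain) were made by PURExpress in vitro transcription/translation and applied at about 100-200 nM to universal all-10-mer Agilent arrays. The arrays were made double-stranded by primer extension, on fresh or once-stripped slides. Bound protein was detected with fluorescent anti-GST, and scans were normalised with masliner. Each ungapped eight-base word, pooled with its reverse complement, received an E-score (modified Wilcoxon-Mann-Whitney statistic) from the Universal PBM Analysis Suite.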

Row | Sequence | PBM E-score
1 | GTGGTATA | 0.0815
2 | CCCCCTGA | -0.246
3 | ACGAGCAA | -0.149
4 | CCTTATCC | -0.205
5 | GCCCAGGC | -0.259
6 | ACTGCAAT | 0.02
7 | ACCACTGG | 0.0723
8 | CGCCGAAG | -0.0557
9 | CGACCACA | -0.0731
10 | GACGCGCC | 0.143
11 | ACTCGCGA | 0.13
12 | AGCAGCAG | -0.0363
13 | ACAACGAA | 0.0922
14 | ACAATTCC | 0.0028
15 | ATCGTTTA | 0.288
16 | AGCTGGAG | -0.281
17 | ATGCGCCC | -0.045
18 | TGAATAAA | 0.152
19 | GACAGTAA | 0.143
20 | ATGAAGGG | -0.161
21 | CGTTGGGA | 0.0186
22 | CTACGGAG | -0.193
23 | GCCAGACC | -0.266
24 | AGGGCTTG | -0.123
25 | CAAGCTAC | 0.0185

Row | Sequence | PBM E-score
26 | CGGGATAG | -0.138
27 | ATACAAAT | 0.255
28 | TAATAGCA | -0.0248
29 | CGATGAAG | -0.0341
30 | AAGCATCG | -0.0304
31 | ACCGATCT | -0.204
32 | ATCTTCCG | 0.00021
33 | ACTGTTGG | -0.277
34 | ATTTCTTA | 0.0947
35 | GCCCCCGA | -0.363
36 | AGACGAAT | 0.17
37 | CCTTAACA | 0.0994
38 | AGGGGATA | -0.121
39 | CCGCAATC | -0.102
40 | AGAGTCTC | -0.278
41 | ATTTAGTG | 0.0842
42 | AGGTGTAT | 0.075
43 | ATGATATA | 0.279
44 | CTACTCCC | -0.166
45 | CGTAAACG | 0.319
46 | CTTGGGAC | -0.261
47 | ATAGCACA | 0.0512
48 | ACGGTTAC | 0.139
49 | GACCGCCC | -0.324
50 | CTACCGTA | 0.231

Row | Sequence | PBM E-score
51 | ACCGTTTC | -0.0682
52 | AAGTCTGT | 0.0213
53 | CGGGTTGC | 0.0494
54 | CCGACAGC | -0.292
55 | AAATAAAC | 0.185
56 | ATACGAAG | 0.223
57 | CCCTTTAG | -0.303
58 | CTACTAGA | 0.0659
59 | CAAATATG | 0.128
60 | CTAACCAG | -0.0782
61 | AAGACGAA | 0.139
62 | TAATGCAA | 0.0655
63 | ATCTCTCC | -0.0492
64 | AAACAGGA | -0.0484
65 | GCCAACGC | -0.0889
66 | GATCAATC | -0.0437
67 | CCGTAGGA | -0.29
68 | CAGCGCTG | 0.0627
69 | CGTGGCCA | 0.0106
70 | AATGCGCC | -0.13
71 | GGAAGGCA | -0.221
72 | CCATTTTA | 0.0503
73 | ATTTCTCC | -0.109
74 | AACTTTCT | 0.0712
75 | ATAGTAGC | -0.0277

Row | Sequence | PBM E-score
76 | CGGATCGC | -0.0397
77 | GGACGGCA | -0.0181
78 | GTGTGACA | 0.12
79 | AAGCTGAA | -0.217
80 | ACTTGCCG | -0.161
81 | ATCGAGTG | 0.0839
82 | GGAGCACC | -0.257
83 | CTGACAAC | -0.0757
84 | AGTATGGC | -0.181
85 | AGGTTTCG | -0.0654
86 | ATCAGGAC | 0.00553
87 | ATCGCCGC | -0.118
88 | GTCCGCGA | -0.285
89 | AAGGTGCC | -0.153
90 | GAGAATGA | 0.163
91 | ACGGCTTC | -0.0896
92 | GGCCTCCA | -0.255
93 | GTTGATAA | 0.198
94 | CTGCAGCC | -0.0988
95 | CGACCACG | 0.131
96 | TCTTGTCA | 0.114
97 | AACGTCCG | 0.0592
98 | GATCACTA | -0.0212
99 | CGATAATA | 0.085
100 | TAAATTTA | 0.236

Row | Sequence | PBM E-score
101 | CGTCCGTC | -0.102
102 | AGTCCGCA | -0.0685
103 | CTTCGTCC | -0.226
104 | GAGCGGTA | -0.0928
105 | ACAAAAGA | 0.153
106 | TAAAGCGA | 0.122
107 | ATGGGTAC | 0.0838
108 | CACGATGC | -0.0139
109 | AACCATCT | -0.21
110 | AGTTTAGG | -0.025
111 | AATGCAGA | 0.122
112 | CCCCTCGC | -0.239
113 | CGTTCGAA | 0.12
114 | GCTGATAA | 0.117
115 | GGACTACA | -0.195
116 | CGGAAAAC | -0.0324
117 | CATAGATC | -0.0516
118 | TGGTGTAA | 0.086
119 | AAACTACG | 0.344
120 | AACTAAAA | 0.159
121 | CACTCCCA | -0.176
122 | CGCATGAG | -0.103
123 | AACGTATA | 0.406
124 | ATTCGTCG | 0.22
125 | ATTACAAT | 0.229

Row | Sequence | PBM E-score
126 | ACATCCGT | -0.00561
127 | ATGGCTGG | -0.185
128 | CCGGGGTC | -0.333
129 | ATCAAGGC | -0.09
130 | ACGCAACA | 0.388
131 | GATCACCA | -0.171
132 | CTCAGCAC | -0.0584
133 | CACCAGCA | 0.0552
134 | AAACGGCC | -0.196
135 | CCTGGAAA | -0.0508
136 | CGGGTTGA | -0.237
137 | TACGCGTA | 0.387
138 | GTGGAGAA | -0.102
139 | CCTTCGCA | -0.126
140 | GCTACCTA | 0.147
141 | ACTACGAA | 0.289
142 | GTTCCCTA | -0.141
143 | GTGATGCA | 0.249
144 | GGGGGAGA | -0.289
145 | GCTAGGCA | -0.26
146 | ACACCTTC | -0.04
147 | AGGACGGC | -0.139
148 | AGCCGCGG | -0.17
149 | ATTCGACA | -0.09
150 | AACCCTTA | 0.115

Row | Sequence | PBM E-score
151 | TACAGCAA | 0.0691
152 | AACTGAAC | -0.208
153 | CGGGTTCC | -0.31
154 | AGGAAGGA | -0.175
155 | CATAAAAC | 0.0827
156 | CCAGCTGA | -0.118
157 | ATATGACA | 0.243
158 | CATGGCGA | -0.152
159 | ATGTTGGG | -0.168
160 | CTACCACA | -0.105
161 | CCGCCTGC | -0.185
162 | CCACTCAA | 0.0742
163 | GTCGCCAA | -0.12
164 | GAATTTAA | 0.123
165 | TCACAACA | 0.251
166 | CACCAACA | -0.101
167 | AAGAACTA | 0.0187
168 | CATCTGTA | 0.116
169 | AGTGGCTC | -0.181
170 | AGGTACAG | -0.145
171 | TAGAAACA | 0.0497
172 | GATATTGA | 0.143
173 | TCGAGTCA | -0.00474
174 | CGTCTGGC | -0.0418
175 | CTACGCAG | 0.274

Row | Sequence | PBM E-score
176 | GCTGTAAA | -0.0317
177 | ATCGCAGC | -0.188
178 | AGGCTCCG | -0.291
179 | CCGGCAGC | -0.26
180 | ATACACAA | 0.179
181 | AAACGGGG | -0.174
182 | GACCAGAC | -0.166
183 | CGGTCCCC | -0.368
184 | ACGCGGAG | -0.112
185 | AGGAGATA | 0.0168
186 | GGGCCGTA | -0.19
187 | CGTCTTAG | 0.0611
188 | ATAGCAGG | -0.126
189 | CGCTGTAG | -0.145
190 | AACTCAGG | -0.0444
191 | CGCCTTGC | -0.171
192 | AGGATTTG | 0.061
193 | ACCCAGAA | -0.0519
194 | AGGACTAC | -0.228
195 | AAATTAGG | 0.212
196 | ATCCCTGC | -0.276
197 | AATAATTC | 0.212
198 | ATAATGAA | 0.207
199 | CAGGCACC | -0.219
200 | AAGAGTCC | -0.252

Row | Sequence | PBM E-score
201 | ATTTAGGA | 0.0108
202 | GCCTCTGA | -0.0424
203 | CTCGTCAG | 0.176
204 | ACATGCCA | -0.0715
205 | CCGCTCTC | -0.259
206 | CCGTAACG | -0.103
207 | TCAGGAGA | -0.103
208 | GGAGAGCC | -0.241
209 | AACGTGTC | 0.192
210 | GAGGGAAC | -0.291
211 | GAGGTAAA | 0.161
212 | ACGGTATA | -0.00848
213 | ACGTTGGG | 0.193
214 | ATCCTGCC | -0.221
215 | GCTTACAC | -0.137
216 | CCGCTCAC | -0.0552
217 | GGAACAAC | -0.125
218 | CCGTTTGA | -0.191
219 | CCGTCTGA | -0.224
